Reference: publication PMC10994765 (Neuron, 2024)

B1: lipidated recombinant ApoE2 (rApoE2-DMPC) (natural protein)
chain: not shown
B2: astrocyte-secreted ApoE2 lipoprotein (human Apolipoprotein E2) (natural protein)
chain: not shown

Experiments:
negative stain TEM [1] = target: the molecule itself; assay: negative stain TEM
negative stain TEM [2] = target: the molecule itself; assay: negative stain TEM; remark: listed apart in the source

| Protein | stoichiometry N (negative stain TEM [1]) | stoichiometry N (negative stain TEM [2]) |
| --- | --- | --- |
| B1 | 2 |  |
| B2 |  | 2 |

Like-named read-outs stand apart in the source and are kept apart here.
